According to PubChem BioAssay (NCATS):
Inconclusive means that the source gave no clear call. Such entries were picked first, then a sample of the others. For some of these results: Potencies beside an inconclusive call are fits to weak or partial responses and may not hold up. Calls of active or inactive are those of the source. Calls come from the whole dose curve; as a rule, active = well fitted curve in the direction sought with a large enough effect; inconclusive = small, poorly fitted or top-dose-only effect, or another doubt; inactive = no such curve, though single readings can be large; an effect the other way counts as inactive or inconclusive.

What was measured:
[1] = UWB1.289 Cancer Cell Toxicity qHTS against the NCATS CANVASS Library (AID 1347347); note: nearly all actives have a fitted effect of over 60% in size; note: potency is the fitted concentration of half-maximal effect; for activity change, negative = cytotoxicity: % is set by controls: 0 for no effect and ±100 for the full control effect
How it was run: (§1)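 Viability was assessed by adding CellTiter-Glo reagent to treated cultures and reading luminescence after 15min at room temperature. Treatment lasted 72 h at 37 degrees C/5% CO2, using an 11-point series on 1000 cells/well.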

[2] = OV-SAHO Cancer Cell Toxicity qHTS against the NCATS CANVASS Library (AID 1347348); conditions: OV-SAHO viability, CellTiter-Glo luminescence, 72 h; activity change, negative = cytotoxicity: at 38.3 µM (top of the series); note: % is set by controls: 0 for no effect and ±100 for the full control effect; nearly all actives have a fitted effect of over 55% in size
How it was run: as §1

[3] = Inflammasome Signaling qHTS Counterscreen: IL-1-beta AlphaLISA counterscreen against the NCATS CANVASS Library (AID 1347381); conditions: Purified IL-1beta AlphaLISA signal interference counterscreen; at 57.5 µM (top of the series);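 note: cell-free check with purified IL-1β in medium and no THP-1 cells; 0% is about no effect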
How it was run: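 Purified IL-1-beta (4 pg/well) + compound, 11-pt conc. series; acceptor beads 6 ug/mL + biotin-Ab 0.6 nM final, 1 h RT; SA-donor 24 ug/ml final, 30 min dark RT; read ex 680/em 615.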

[4] = Secretion counterscreen for inhibitors of the SERCaMP assay screened against the NCATS CANVASS Library (AID 1347390);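 note: light from luciferase secreted into medium read as a measure of general secretion; potency is the fitted concentration of half-maximal effect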
How it was run: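 SH-SY5Y cells expressing constitutively secreted GLuc, 1000 cells/well, attached 4 h at 37C, then exposed to compounds (0.001 - 77 uM, 11-pnt series) for 20 h. Coelenterazine added; luminescence read to flag secretory-pathway interferers.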

[5] = qHTS for activators of dead-cell proteases activity screened against the NCATS CANVASS Library (AID 1347392);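 note: luminescence from protease leaking out of membrane-damaged cells cleaving impermeant substrate; 0% is about no effect; rising signal means more cytotoxicity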
How it was run: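 Luminescent dead-cell protease readout (AAF-aminoluciferin, 15 min, room temperature) after 5 h compound treatment of HepG2 cells (2000/well, pre-attached 18 h). Eleven concentrations.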

[6] = OV-KATE Cancer Cell Toxicity qHTS against the NCATS CANVASS Library (AID 1347345); note: potency is the fitted concentration of half-maximal effect
How it was run: as §1

[7] = COV-362 Cancer Cell Toxicity qHTS against the NCATS CANVASS Library (AID 1347352); note: potency is the fitted concentration of half-maximal effect
How it was run: (§2)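 Toxicity was measured as CellTiter-Glo luminescence after 72 h exposure to an 11-point compound series. Compound was added to 1000 cells/well 4 h after seeding.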

[8] = UWB1.289-WTBRCA1 Cancer Cell Toxicity qHTS against the NCATS CANVASS Library (AID 1347354); note: potency is the fitted concentration of half-maximal effect
How it was run: as §2

[9] = HEK293 24hr Apoptosis Induction qHTS against the NCATS CANVASS Library (AID 1347359); note: potency is the fitted concentration of half-maximal effect
How it was run: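 Caspase-3/7 activation measured as luminescence from the DEVD-based Caspase-Glo reagent, 15 min at room temperature, following 24-hour compound treatment of HEK293 cells.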

[10] = G06 Cancer Cell Toxicity qHTS against the NCATS CANVASS Library (AID 1347368); note: potency is the fitted concentration of half-maximal effect; nearly all actives have a fitted effect of over 60% in size
How it was run: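 Viability measured by CellTiterGlo ATP luminescence after 72 hr at 37C, 5% CO2. Canine G06 glioma cells plated at 500/well. Compounds tested as 11-point qHTS titrations.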

[11] = target: Nuclear receptor subfamily 1 group I member 3 (Homo sapiens) (UniProt Q14994); assay: qHTS for Constitutive Androstane Receptor (CAR) Antagonist screened against the NCATS CANVASS Library (AID 1347372); note: potency is the fitted concentration of half-maximal effect;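 for activity change, negative = inhibition: cells stimulated with 50 nM CITCO agonist so inhibition reflects antagonism; % is set by controls: 0 for no effect and ±100 for the full control effect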
How it was run: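 Antagonist mode: compound added alongside 50 nM CITCO to HepG2-hCAR-CYP2B6 reporter cells, 24hr at 37C. Viability by CellTiter-Fluor fluorescence, then CAR-driven luciferase by ONE-Glo luminescence.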

[12] = qHTS for Hypoxia signaling pathway (HIF-1) antagonists against the NCATS CANVASS Library (AID 1347374); note: potency is the fitted concentration of half-maximal effect; nearly all actives have a fitted effect of over 60% in size
How it was run: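 Antagonism scored as loss of CoCl2-driven (60 uM stock added) HRE beta-lactamase signal, read by CCF4 FRET at 460/530 nm. Compounds were tested in an 11-point series on ME-180 reporter cells for 17 hrs at 37C, with parallel CellTiter-Glo cytotoxicity.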

[13] = qHTS assay for small molecule disruptors of mitochondrial membrane potential screened against the NCATS CANVASS Library (AID 1347389); note: potency is the fitted concentration of half-maximal effect; nearly all actives have a fitted effect of over 60% in size
How it was run: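 Mitochondrial membrane potential in HepG2: 1 h compound treatment (11-point concentration series), 30 min m-MPI dye at 37C, then dual fluorescence of J-aggregates (ex 540/em 590) and monomers (ex 490/em 535); lower red/green ratio indicates depolarization.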

[14] = qHTS for inhibitors of ER calcium dysfunction: SERCaMP assay screened against the NCATS CANVASS Library (AID 1347393); conditions: SH-SY5Y GLuc-SERCaMP (Gaussia luciferase released on ER calcium loss) secretion, thapsigargin, luminescence; activity change, negative = inhibition: at 76.6 µM (top of the series); note: potency is the fitted concentration of half-maximal effect; nearly all actives have a fitted effect of over 40% in size
How it was run: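 Thapsigargin-induced ER calcium depletion drives GLuc-SERCaMP secretion from SH-SY5Y cells; compounds given 16 h beforehand were scored by lowered coelenterazine luminescence after 4 h challenge.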

[15] = Vero-766 cells viability qHTS against the NCATS CANVASS Library: Counterscreen for Zika virus inhibition assay (AID 1347394)
How it was run: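 Uninfected Vero 766 (African green monkey) cells, 1000/well, attached overnight, then exposed 72 h at 37C to compounds (11-point qHTS). Viability read by CellTiter-Glo luminescence; media-only wells served as 100% inhibition.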

[16] = qHTS for inhibitors of Wild type Zika virus screened against the NCATS CANVASS Library (AID 1347396); note: potency is the fitted concentration of half-maximal effect
How it was run: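 Vero 766 (African green monkey) cells, 1000 per well, attached overnight, then compounds were added in an 11-point series before wild-type Zika virus infection. After 72 h at 37C, cell viability was read as CellTiter Glo luminescence.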

[17] = HEK-293 Cancer Cell Toxicity qHTS against the NCATS CANVASS Library (AID 1347355); note: nearly all actives have a fitted effect of over 65% in size
How it was run: as §2

[18] = HPAF-II 12hr Apoptosis Induction qHTS against the NCATS CANVASS Library (AID 1347358); note: 0% is about no effect
How it was run: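 Caspase-3/7 activation by DEVD-substrate luminescence (Caspase-Glo 3/7, 15 min, room temperature) after a 12-hour compound exposure in 11 concentrations, of HPAF-II pancreatic cells seeded at 500/well in DMEM with 10% FBS.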
Tags give direction and shape of the fitted curve.

Chain of UniProt Q14994 (Q14994 whole entry, looked up): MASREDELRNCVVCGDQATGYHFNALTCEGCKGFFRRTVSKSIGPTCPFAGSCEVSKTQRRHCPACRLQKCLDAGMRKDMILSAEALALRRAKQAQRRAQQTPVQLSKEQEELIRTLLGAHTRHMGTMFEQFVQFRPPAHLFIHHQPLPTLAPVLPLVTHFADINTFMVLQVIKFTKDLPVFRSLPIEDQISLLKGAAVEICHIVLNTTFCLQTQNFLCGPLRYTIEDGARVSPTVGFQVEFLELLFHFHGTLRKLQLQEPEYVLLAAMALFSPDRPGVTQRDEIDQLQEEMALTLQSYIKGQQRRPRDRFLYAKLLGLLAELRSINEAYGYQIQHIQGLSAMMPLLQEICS

CO[C@@H](/C=C/CC/C=C/C(=O)O)[C@@H](O)[C@H](C)[C@@H](O)/C(C)=C/[C@H](C)C(=O)CCCC1CC(=O)NC(=O)C1
inactive: Potency [1] | Potency [2]

CC1=CC2CC[C@@H]3[C@@H](C)C[C@H](C)[C@@H](C1)N23 (some centres not stated)
inconclusive: Potency [4] 0.0068 µM [inhibitor, full curve]
inactive: Potency [1] | activity change, negative = inhibition [3] -5.75% | Potency [5]

CC(C)CC1C(=O)O[C@H](C(C)C)C(=O)N(C)C(CC(C)C)C(=O)O[C@@H](C(C)C)C(=O)N(C)C(CC(C)C)C(=O)O[C@H](C(C)C)C(=O)N(C)C(CC(C)C)C(=O)O[C@@H](C(C)C)C(=O)N1C (some centres not stated)
active: Potency [11] 20.9 µM | Potency [13] 7.41 µM | Potency [15] 11.7 µM | Potency [16] 14.7 µM
inconclusive: Potency [6] 5.94 µM [cytotoxic, full curve] | Potency [1] 5.29 µM [cytotoxic, full curve] | Potency [7] 6.66 µM [cytotoxic, full curve] | Potency [8] 6.66 µM [cytotoxic, full curve, poor fit] | Potency [9] 33.2 µM [activator, single point] | Potency [10] 6.62 µM [cytotoxic, full curve] | Potency [12] 3.75 µM [inhibitor, full curve] | Potency [4] 60.9 µM [inhibitor, partial curve, poor fit] | Potency [14] 10.8 µM [inhibitor, partial curve]

CO[C@@H](/C=C/CC/C=C/C(=O)O)[C@@H](O)[C@H](C)/C=C(\C)[C@@H](O)[C@H](C)C(=O)CCCC1CC(=O)NC(=O)C1
inactive: Potency [17] | Potency [18] | Potency [11]
